Here are results for 54 compounds from PubChem BioAssay AID1347073 (National Center for Advancing Translational Sciences (NCATS), 2019).

Screen size: about 45,000 compounds; about 200 (0.44%) were called active. Roughly 7% stayed inconclusive and do not appear here. The call rests on the fitted dose curve; in most records, active means well fitted activation curve with a large enough effect; inconclusive means small, poorly fitted or top-dose-only effect; inactive means no such curve, though single readings can be large or run the other way. The list shows a part of the results.

This assay can be described thus: qHTS of TDP-43 Inhibitors: NCGC Sytravon Library Screen. Further: 0% is about no effect; nearly all actives have a fitted effect of over 55% in size. The following applies: yeast TDP-43 toxicity rescue, BacTiter-Glo growth, 24 h; series mostly up to 46.1 µM; growth rescue (activation): at the top concentration. From the text: The goal of this project is to identify new chemical probes capable of reversing the toxicity associated with TDP-43 which is associated with frontotemporal lobar degeneration and amyotrophic lateral sclerosis. These compounds will provide a complementary approach to deciphering the tangled mechanisms of toxicity and protection that we have uncovered through genome-wide genetic screens and are beginning to uncover in a large-scale proteomics analysis with mass spectroscopy. To this end, a miniaturized assay was developed to be screened against the Molecular Libraries Small Molecule Repository (MLSMR) to discover TDP-43 inhibitors. Please note that in the set-up this yeast-based assay compounds that inhibit as TDP-43, have a read-out as activators. NIH Chemical Genomics Center [NCGC] NIH Molecular Libraries Probe Centers Network [MLPCN] Assay Submitter (PI): Susan Lindquist, Whitehead Institute/MIT MLPCN Grant: R21 NS060957
Dispense 2.5 microL yeast galactose medium per 1536-well plate, pin compound, dispense 2.5 microL TDP-43 expressing yeast in galactose medium at OD600=0.02 (pregrown in raffinose medium to mid-log phase) per well, incubate for 24 hr at 30 deg C, and cell growth will be measured using 5 microL of Bactiter/Glo reagent to entire plate and read using Luminescence Protocol in ViewLux.
Turning to `COC(=O)Cc1cc(=O)n2[nH]c(C)c(-c3ccccc3)c2n1`, the “growth rescue (activation)” value is inactive: 16.9%.

In the case of `COc1ccc(NC(=O)c2cccnc2NCCc2ccccc2)cc1`, the “growth rescue (activation)” value is inactive: 6.96%.

As for `CN(c1ccccc1C(=O)O)S(=O)(=O)c1ccc2[nH]c(=O)oc2c1`, the “growth rescue (activation)” value is inactive: 7.98%.

Consider `C/C(=N\NC(=O)C(=O)Nc1c(C)n(C)n(-c2ccccc2)c1=O)c1ccc(Cl)s1`, for which the “growth rescue (activation)” value is inactive: 11.1%.

In the case of `Cc1oc2ccc(OCc3ccc(Br)cc3)cc2c1C(=O)O`, the “growth rescue (activation)” value was inactive: 8.18%.

Turning to `CC(C)[C@H](NC(=O)Nc1cccc(C(F)(F)F)c1)C(=O)O`, the “growth rescue (activation)” value was inactive: -14.2%.

Regarding `O=C(O)c1ccc(Cl)c(S(=O)(=O)NC(Cc2ccccc2)C(=O)O)c1` (centres undefined), the “growth rescue (activation)” value is inactive: -2.89%.

As to `Cc1ccc(/C=N/NC(=O)c2cccnc2)o1`, the “growth rescue (activation)” value was inactive: 7.38%.

With `CC(=O)c1cccc(NC(=O)CCCN(C)S(=O)(=O)c2ccc(F)cc2)c1`, the “growth rescue (activation)” value was inactive: 0.19%.

Turning to `O=C(CN1CCCCCC1)N/N=C/c1ccc(Cl)c(Cl)c1`, the “growth rescue (activation)” value is inactive: -33.2%.

With `CCOc1ccccc1C(=O)N(Cc1sccc1C)C1CCS(=O)(=O)C1` (centres undefined), the “growth rescue (activation)” value is inactive: 9.13%.

In the case of `O=C1C(=O)N(CC2CCCO2)C(c2ccccc2[N+](=O)[O-])/C1=C(/O)c1ccccc1` (centres undefined), the “growth rescue (activation)” value is inactive: 5.14%.

For `O=C(Nn1cnnc1)c1ccccc1CCc1ccccc1`, the “growth rescue (activation)” value is inactive: 2.88%.

`Cc1ccc(C(=O)NC(=S)Nc2ccc(NC(=O)c3cccs3)cc2)cc1[N+](=O)[O-]`: the “growth rescue (activation)” value is inactive: 17.5%.

Consider `O=C(N/N=C/c1ccc(Br)o1)c1cccnc1`, for which the “growth rescue (activation)” value was inactive: 8.29%.

Consider `Cc1ccc(S(=O)CCNC(=O)Cc2ccccc2)cc1` (centres undefined), for which the “growth rescue (activation)” value is inactive: -5.35%.

For the compound `COc1cccc(NC(=S)N2CCN(Cc3ccccc3)CC2)c1`, the “growth rescue (activation)” value was inactive: 13.1%.

For `CCCCn1c(N)c(N(CC)C(=O)COc2ccc(C#N)cc2)c(=O)[nH]c1=O`, the “growth rescue (activation)” value is inactive: 12.8%.

On to `N#Cc1ccsc1NC(=O)COC(=O)CCS(=O)(=O)c1ccccc1`, for which the “growth rescue (activation)” value was inactive: -7.05%.

In the case of `CCCC(=O)Nc1nnc(SCC(=O)N2C(C)CCCC2C)s1` (centres undefined), the “growth rescue (activation)” value is inactive: 13%.

Take `CCCSc1ncc(Cl)c(C(=O)Nc2sc3c(c2C(=O)OC)CCCC3)n1`: the “growth rescue (activation)” value was inactive: 17.2%.

As for `Cc1noc(C)c1-c1ccc(C(=O)NCCN2CCOCC2)c2occc12`, the “growth rescue (activation)” value was inactive: 4.72%.

As to `Cc1ccc([N+](=O)[O-])cc1N`, the “growth rescue (activation)” value was inactive: -9.08%.

As for `Nc1cc[n+](CC(=O)Nc2ccccc2)cc1`, the “growth rescue (activation)” value was inactive: 3.86%.

On to `NC(=S)Nc1cccc(-c2n[nH]c(=S)o2)c1`, for which the “growth rescue (activation)” value is inactive: -17.1%.

For the compound `CN(C)c1ccc(NC(=O)CN2CCC(NC(=O)C3CCCCC3)CC2)cc1`, the “growth rescue (activation)” value is inactive: -17.3%.

Regarding `COc1cccc(NC(=O)CNC(=O)c2ccc([N+](=O)[O-])cc2)c1`, the “growth rescue (activation)” value is inactive: 19.2%.

For `O=C(c1cccc(C(F)(F)F)c1)C1CCCN(C(=O)CN2CCOC2=O)C1` (centres undefined), the “growth rescue (activation)” value is inactive: 20.4%.

With `Cc1cccc(OCC(=O)N(Cc2ccc(N(C)C)cc2)C2CCS(=O)(=O)C2)c1` (centres undefined), the “growth rescue (activation)” value is inactive: -15.1%.

As for `N#CCC(=O)Nc1ccc(C(=O)NCCc2c[nH]c3ccccc23)cc1`, the “growth rescue (activation)” value was inactive: 5.82%.

For `Cc1ccc(N(Cc2ccccc2F)S(C)(=O)=O)c(C)c1`, the “growth rescue (activation)” value was inactive: 32%.

`CC(C)[C@H](NC(=O)c1ccccc1)C(=O)OCC(=O)NCc1ccc2c(c1)OCO2`: the “growth rescue (activation)” value is inactive: 1.79%.

Consider `O=C(COC(=O)Cc1ccsc1)NCc1ccccc1`, for which the “growth rescue (activation)” value is inactive: 8.43%.

For `COc1cccc(CNc2ccc3[nH]c(=O)[nH]c3c2)c1OCc1ccc(F)cc1`, the “growth rescue (activation)” value was inactive: -17.3%.

For `COc1ccc2oc(C(=O)OC(C)C(=O)N3C(C)CCCC3C)c(C)c2c1` (centres undefined), the “growth rescue (activation)” value is inactive: 13.2%.

On to `CN(C)S(=O)(=O)c1cc(NC(=O)COC(=O)CCc2ccccc2)ccc1Cl`, for which the “growth rescue (activation)” value is inactive: -2.03%.

For the compound `Cc1ccc(NC(=O)c2ccc(NS(=O)(=O)c3c(C)noc3C)cc2)cc1C`, the “growth rescue (activation)” value is inactive: 27.6%.

`O=C(CCSCCC(=O)NCc1ccc(F)cc1)NCc1ccc(F)cc1`: the “growth rescue (activation)” value is inactive: 18.8%.

As for `Cc1ccc(C(C(=O)NC2CCCCC2)N(C(=O)c2csnn2)c2ccccc2F)o1` (centres undefined), the “growth rescue (activation)” value was inactive: 15.9%.

Take `COc1ccc(CCNC(=O)CS(=O)(=O)Cc2nc(-c3ccc(C)cc3)oc2C)cc1OC`: the “growth rescue (activation)” value was inactive: 1.36%.

On to `CC(=O)Oc1ccc(-c2cccc(C(=O)N(C)c3ccc(O)cc3)c2)cc1`, for which the “growth rescue (activation)” value was inactive: 0.817%.

Consider `Cc1ccc2cc3cc(C(=O)N(C)c4ccccc4C)oc3nc2c1`, for which the “growth rescue (activation)” value was inactive: 14.3%.

Turning to `COc1ccc(C(=O)C2CCCN(C(=O)CCc3scnc3C)C2)c(C)c1` (centres undefined), the “growth rescue (activation)” value is inactive: 11.6%.

Take `COCCN1C[C@@H](CO)O[C@@H](n2cnc3c(N4CCN(c5ccccc5)CC4)ncnc32)C1`: the “growth rescue (activation)” value is inactive: 7.61%.

Turning to `Fc1ccc(NC(=S)Nc2ccccc2OC(F)F)cc1Cl`, the “growth rescue (activation)” value is inactive: -11.5%.

Regarding `Cc1ccc(F)c(S(=O)(=O)NC(=O)C2(C)CCN2C(=O)Cc2cccs2)c1` (centres undefined), the “growth rescue (activation)” value is inactive: 4.4%.

Regarding `Cc1ccccc1Nc1scc(-c2ccc(Br)cc2)[n+]1-c1ccccc1C`, the “growth rescue (activation)” value was inactive: 18.9%.

Consider `COc1cccc(/C=N/NC(=O)c2cc(-c3ccccn3)nc3ccccc23)c1O`, for which the “growth rescue (activation)” value was inactive: 9.5%.

On to `COc1ccc(CC(NC(C)=O)C(=O)NC2CCN(S(=O)(=O)c3ccc(NC(C)=O)cc3)CC2)cc1OC` (centres undefined), for which the “growth rescue (activation)” value was inactive: -15.9%.

With `CC1(C(=O)NCC2CC2)Cc2c(-c3cccc(C(N)=O)c3)ccnc2O1` (centres undefined), the “growth rescue (activation)” value was inactive: 5.48%.

With `Clc1ncnc2scc(-c3ccc(Br)cc3)c12`, the “growth rescue (activation)” value was inactive: 15.8%.

Regarding `COc1ccc(S(=O)(=O)C(C#N)c2nc3ccccc3nc2N2CCCCC2)cc1` (centres undefined), the “growth rescue (activation)” value is inactive: -0.506%.

`CCCOC(=O)c1ccc(Nc2c(C(=O)OCC)cnc3c(C)cc(Cl)cc23)cc1`: the “growth rescue (activation)” value was inactive: 23.2%.

On to `NC(=O)Nc1ccc(C(=O)OCC(=O)NC2CCCc3ccccc32)cc1` (centres undefined), for which the “growth rescue (activation)” value was inactive: 1.49%.
